Hit rate of the full screen: of about 45,000 compounds, about 65 (0.1%) were called active. Calls follow the shape of the dose curve; as a rule, active = well fitted activation curve with a large enough effect; inconclusive = small, poorly fitted or top-dose-only effect; inactive = no such curve, though single readings can be large or run the other way. This is one part of the list.
What follows are compounds tested against Galactocerebrosidase (Homo sapiens) (UniProt P54803) (assay: A Novel Cell-Based Assay to Identify Small Molecules for B -Galactocerebrosidase). Settings: 145M-Twi-hGALC-G270D cells (Twitcher mouse brain line with human GALC G270D), HMU-beta-Gal fluorescence, 48 h; series mostly up to 57.5 µM; activation: at the top concentration.
Outline: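 Live 145M-Twi cells (Twitcher mouse brain-derived, GALC-null) stably expressing human GALC-G270D, with a wild-type GALC line, were compound-treated. Residual GALC activity was then read as fluorescence from 0.1 mM final HMU-β-gal at pH 5.2; higher signal means activation.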
Also: 0% is about no effect; nearly all actives have a fitted effect of over 65% in size.

Chain of UniProt P54803 (P54803 whole entry, looked up): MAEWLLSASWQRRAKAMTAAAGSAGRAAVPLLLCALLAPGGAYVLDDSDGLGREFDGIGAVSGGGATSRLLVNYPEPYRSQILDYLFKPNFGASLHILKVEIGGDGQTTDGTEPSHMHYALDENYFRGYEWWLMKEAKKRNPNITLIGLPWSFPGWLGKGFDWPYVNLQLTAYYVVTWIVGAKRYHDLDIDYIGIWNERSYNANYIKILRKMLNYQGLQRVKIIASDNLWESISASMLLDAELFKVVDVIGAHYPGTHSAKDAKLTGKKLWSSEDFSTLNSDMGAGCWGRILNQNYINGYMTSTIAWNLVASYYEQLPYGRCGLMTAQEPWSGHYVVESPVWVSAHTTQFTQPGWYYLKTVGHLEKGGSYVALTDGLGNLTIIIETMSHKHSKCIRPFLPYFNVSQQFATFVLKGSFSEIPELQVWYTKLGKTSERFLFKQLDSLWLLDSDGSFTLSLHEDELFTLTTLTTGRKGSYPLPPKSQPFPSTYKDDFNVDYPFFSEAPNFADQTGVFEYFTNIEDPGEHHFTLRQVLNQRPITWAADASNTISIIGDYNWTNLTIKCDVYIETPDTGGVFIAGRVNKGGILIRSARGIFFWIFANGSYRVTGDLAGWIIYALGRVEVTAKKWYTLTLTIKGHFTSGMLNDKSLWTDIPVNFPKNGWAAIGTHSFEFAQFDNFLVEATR

activation, inactive:
Cc1ccc(OC(=O)c2cc(-c3ccc(Cl)cc3)on2)c(C)c1 -14.1%
CCOc1ccc(-n2c(=O)c3sc4ccccc4c3n(Cc3cccc(C)c3)c2=O)cc1 5.27%
O=C(NC1(C(F)(F)F)C(=O)Nc2c1c(=O)[nH]c(=O)n2-c1ccc(F)cc1)c1ccccc1 (stereo unspecified) -3.91%
COc1ccc(C2C(=O)N(C3CCCCC3)CC(=O)N2CCC2=CCCCC2)cc1 (stereo unspecified) -11.8%
COc1ccc(-n2cc(C(=O)OCc3ccc(F)c(F)c3)c3ccccc3c2=O)cc1 4.9%
CCc1ccc(NS(=O)(=O)c2ccc3[nH]cc(C(=O)NCCc4cccc(C)c4)c(=O)c3c2)cc1 -11.7%
COc1ccc2c(c1)sc1ncc(C(=O)NCc3ccc(Cl)cc3)c(=O)n12 -7.06%
CCN1CCN(c2oc(/C=C/c3ccc(OC)c(OC)c3)nc2C#N)CC1 -2.51%
O=C(NCc1ccccc1)C(=O)NCC(c1ccc2c(c1)OCO2)N1CCOCC1 (stereo unspecified) -9.43%
Clc1ccc(-c2cn3ncsc3n2)cc1 -14.7%
CCOc1ccc(CCNC(=O)Cn2ncn3c(cc4sc(C)cc43)c2=O)cc1OCC -1.81%
CC1CCC(NC(=O)c2ccc3c(c2)N(Cc2ccccc2F)C(=O)c2ccccc2S3=O)CC1 (stereo unspecified) -14.3%
C[C@]12CCC(=O)C=C1CC[C@@H]1[C@@H]2[C@@H](O)C[C@@]2(C)[C@H]1CC[C@]2(O)C(=O)CO -16%
CCCCN1C(=O)c2[nH]nc(-c3ccccc3O)c2C1c1cc(Br)c(O)c(OC)c1 (stereo unspecified) -3.14%
O=c1c2cccnc2n(Cc2ccccc2F)c(=O)n1Cc1ccc(F)cc1 -7.16%
COc1cccc(CNC(=O)c2ccc3nc(N4CCCCC4)sc3c2)c1OC -7.63%
COc1ccccc1NC(=O)c1cc(S(=O)(=O)NCCc2ccccc2)ccc1F -2.28%
Cc1ccc(CN2CCSc3ccc(C(=O)N4CCN(c5ccc(Cl)cc5)CC4)cc32)cc1 -9.45%
CCOCCCNC(=O)C(c1ccc(OC)cc1)N(Cc1ccc2c(c1)OCO2)C(=O)c1ccc(NC(C)=O)cc1 (stereo unspecified) -22.7%
O=S(=O)(Nc1ccc2nc(-c3ccc(F)cc3)oc2c1)c1ccccc1 -13.4%
CCCCc1nn2c(=O)cc(COC(=O)c3ccc(NC(=O)c4ccccc4Cl)cc3)nc2s1 -14.6%
COc1ccc(NC(=O)Cn2c3ncccc3c(=O)n2-c2ccc(C)c(C)c2)c(OC)c1 -16.2%
CC(=O)Nc1cc(C(=O)NCc2ccccc2Cl)ccc1Sc1ccc(F)cc1 -7.88%
Cc1cc(C)cc(NC(=O)c2cc(S(=O)(=O)NCCC3=CCCCC3)ccc2F)c1 -4.77%
Cc1ccc(NC(=O)c2cc(S(=O)(=O)N3CCCCC3)c[nH]2)cc1N(C)C -15.6%
Cc1nnc(NC(=O)CSc2nc3c([nH]c4ccccc43)c(=O)n2-c2ccc(Cl)cc2)s1 -6.05%
Cc1ccc2[nH]c(=O)c3cc(C(=O)N(C)c4ccc(Br)cc4)sc3c2c1 2.83%
COc1ccc2c(c1)CC(C(=O)NCc1ccc(F)cc1)CO2 (stereo unspecified) -11.5%
Cc1cc(OCC(=O)Nc2ccc(C(=O)OC3CCCCC3)cc2)cc(C)c1Cl -8.26%
COc1ccc(CCNCc2c(C(=O)O)c(C)n(Cc3c(F)cccc3Cl)c2C)cc1OC -9.03%
CCOc1ccc2nc(N3CCN(C(=O)c4ccc5c(c4)CCCC5)CC3)sc2c1 -20%
CCc1ccc(NC(=O)C2CCN(c3nc(-c4ccc(OC)cc4)no3)CC2)cc1 -0.229%
Cc1cccc(C(=O)Nc2ccc3oc(-c4cccc5c(Br)cccc45)nc3c2)c1 -19.2%
COc1ccc2c(c1)c1c(c(=O)n(-c3ccc(F)c(Cl)c3)c(=O)n1Cc1cccc(C)c1)n2C -5.99%
Cc1ccc(C(=O)Nc2c(C(=O)NC(C)(C)C)oc3ccccc23)cc1 -22.6%
CCOc1ccc2c(c1)c(=O)c(C(=O)c1ccccc1)cn2Cc1ccccc1 -10.9%
Cc1ccc2c(c1)C(=O)OC(C(=O)Nc1ncc(Cc3ccccc3Cl)s1)C2 (stereo unspecified) -0.551%
Cc1ccc(-c2cc(-c3ccc4c(c3)NC(=O)CO4)nc3c2COc2ccccc2-3)cc1 -3%
Cc1cccc(N2C(=O)N(Cc3cc(=O)n4ccccc4n3)c3ccccc3S2(=O)=O)c1 21.6%
COc1ccc(CNC(=O)Cn2nc3c(cc2=O)CCCC3)cc1 -9.99%
CCOC(=O)c1ccc(NC(=O)CSc2c(C(C)C)cnc3c2c(=O)n(C)c(=O)n3C)cc1 -9.13%
Cc1ccc(-n2nc(C)c3nc(CCC(=O)Nc4cccc(C)c4C)c(=O)n(C)c32)cc1 -12.2%
Cc1cc(C)c2c(CC(=O)Nc3ccc(F)cc3)coc2c1 -15.3%
Cc1cccc(NC(=O)N2CCC(CN3CCC(C)CC3)CC2)c1C -8.55%
CC(=O)Nc1c(C)nn(-c2ccccc2)c1N1CCC(C(=O)Nc2ccc(F)cc2Cl)CC1 -6.88%
CCCCCCC[N+](CC)(CC)CCCCc1ccc(Cl)cc1 -17.6%
Cc1ccccc1CNC(=O)C1CCN(c2nnc(-n3c(C)ccc3C)s2)CC1 -2.05%
COc1ccc2c(c1)c(=O)c(S(=O)(=O)c1ccc(Cl)cc1)cn2C -5.06%
CCCn1c(SCc2nc(-c3cc(OC)ccc3OC)no2)nnc1-c1ccc(Cl)cc1 -11.3%
CCOC(=O)c1cccc(NC(=O)c2cc3cc4ccc(C)cc4nc3o2)c1 -7.19%
CCc1cccc(CC)c1NC(=O)C(CC)n1nc(C)n2c(cc3cc(C)ccc32)c1=O (stereo unspecified) -11%
CCOC(=O)c1c(C)[nH]c(C)c1S(=O)(=O)N1CCCC(C(=O)Nc2ccccc2OCC)C1 (stereo unspecified) -0.614%
Cc1ccc2c(c1)C(c1ccccc1)N(C(=O)c1ccccc1F)CC(=O)N2 (stereo unspecified) -9.27%
Cc1ccc(-c2nc(CS(=O)(=O)CC(=O)N3CCN(c4cccc(C)c4C)CC3)c(C)o2)cc1 -13.7%
CC1CCN(S(=O)(=O)c2ccc3c(c2)oc(=O)n3CC(=O)NC(C)c2ccccc2)CC1 (stereo unspecified) -30.2%
CCCc1ccc(OC(C)C(=O)Nc2sc3c(c2C(=O)OC)CCCCC3)cc1 (stereo unspecified) -18.8%
CCN1CCN(c2csc3ccc(C)cc3c2=O)CC1 -10.6%
Cc1ccccc1-c1noc(-c2cc3ccccc3oc2=O)n1 -7.11%
COc1ccc(Br)cc1CNC(=O)CSc1cc(=O)n(C)c2ccccc12 -17.3%
Cc1ccc(-n2ncc(C(=O)Nc3ccc4c(c3)OCCO4)c2C2CCN(C(=O)OC(C)(C)C)CC2)cc1 6.6%
CCCCNC(=O)c1nn(-c2ccc(C)cc2)c(=O)c2c1c1ccccc1n2C -20.9%
O=C(O)CC(O)C(=O)O (stereo unspecified) -19.1%
Cc1cccc(CNC(=O)c2cccc(NC(=O)N3CCSc4ncccc43)c2)c1 -11.2%
CNc1c(NC(=O)c2cc(OC)cc(OC)c2)c(=O)oc2ccccc12 -8.85%
CSc1nc(Nc2cccc(C)c2)c(C#N)c(-c2ccccc2)n1 -20.4%
Cn1c(SCC(=O)N2CCCc3ccccc32)ncc(C(=O)Nc2ccc(F)cc2)c1=O -9.59%
CCOC(=O)c1cnc2ccc(OC)cc2c1NCCc1ccc(OC)c(OC)c1 -9.07%
CCCCN(Cc1ccccc1)S(=O)(=O)c1cc(Br)cc2c1N(C(=O)C1CC1)CC2 -12.3%
CCOC(=O)N1CCC(NC(=O)c2ccc3c(c2)N(Cc2ccccc2)C(=O)c2ccccc2S3=O)CC1 (stereo unspecified) -9.99%
COc1cc(NC(=O)c2ccc(-c3nc(COc4ccccc4)c(C)o3)cc2)cc(OC)c1 -21.2%
COc1ccc2c(c1)c1c(c(=O)n(-c3ccc(C)cc3)c(=O)n1CC(=O)N1CCCC1)n2C -15.1%
CCOc1ccc(-n2ccn3c(CC(C)CC(=O)O)nnc3c2=O)cc1 (stereo unspecified) -5.44%
Cc1ccccc1-c1nc2cc(NC(=O)c3cccc(OCCC(C)C)c3)ccc2o1 -22.9%
CCC12CN3CC(C)(CN(C1)C3c1ccccc1C)C2=O (stereo unspecified) -24.2%
Cc1ccc(S(=O)(=O)c2cnc(SC(C)C(=O)Nc3ccccc3)[nH]c2=O)cc1 (stereo unspecified) -4.47%
CCC(Cn1nnc2ccccc2c1=O)NC(=O)Nc1ccc(C)cc1 (stereo unspecified) 3.54%
CCOc1ccc(OCC)c(NC(=O)c2cc(CN3CCOCC3)on2)c1 -9.14%
CC(=O)C1=C(c2ccc(Cl)c(Cl)c2)N(C(C)=O)n2c(nnc2C2CCCCC2)S1 -17.2%
O=C(CCc1nnc2n(Cc3ccccc3Cl)c(=O)c3ccccc3n12)Nc1ccc(F)cc1 -21.6%
CCCNC(=O)CCn1nc(-c2ccccc2)c2ccccc2c1=O -13.9%
O=C(CSc1nnc(CNC(=O)c2ccccc2F)n1-c1ccccc1)Nc1ccccc1F -11.1%
O=C(NCCS(=O)(=O)N1CCN(c2ccccc2F)CC1)C(c1ccccc1)c1ccccc1 -8.46%
O=C(Nc1ccccc1Cl)c1cc(S(=O)(=O)N2CCC3(CC2)OCCO3)ccc1F -8.46%
CNCCCC1c2ccccc2C=Cc2ccccc21 -8.34%
CCOC(=O)C1CCCN(C(=O)c2cccc(NC(=O)c3nsc4ccccc34)c2)C1 (stereo unspecified) -16.7%
Cc1ccc(NC(=O)CCNS(=O)(=O)c2ccc(Br)s2)cc1 -7.67%
Cc1ccc(-c2nc(NC(=O)CSc3ncnc4sc5c(c34)CCC(C)C5)ns2)cc1 (stereo unspecified) -13.9%
CCn1cc2nc(SCc3ccccc3Cl)n(CCc3ccccc3)c(=O)c2n1 -18.9%
CCOc1ccc(N(CC)S(=O)(=O)N2CCCC(C(=O)Nc3ccc(OC)c(OC)c3)C2)cc1 (stereo unspecified) -12.3%
CCc1cccc(OCC(=O)Nc2ccc(S(=O)(=O)Nc3cc(C)nc(C)n3)cc2)c1 2.33%
COc1ccc(OC)c(CCNC(=O)c2ccc3c(c2)N(Cc2ccc(C)cc2)CCS3)c1 -28.6%
COc1ccc(F)cc1S(=O)(=O)NCCc1c(C)[nH]c2c(Cl)cccc12 -2.48%
COc1ccc2cc3cc(C(=O)NCc4ccc(C)cc4)oc3nc2c1 -19.9%
Cc1cc(C)cc(NC(=O)CSc2nc3c(oc4ccccc43)c(=O)n2-c2ccccc2F)c1 2.8%
CCOC(=O)N1CCC(NC(=O)c2c(C)nn(-c3ccc(C)cc3)c2-n2cccc2)CC1 -36.8%
CCCCOc1ccc(C(=O)Nc2nnc3n2CCS3)cc1 -27.4%

From PubChem BioAssay AID1159614 (National Center for Advancing Translational Sciences (NCATS), 2016)
